Data as given in the RNAGym collection of RNA variant scans (doi:10.7554/elife.90254).
The source gives no read counts; variants with many changes may rest on few reads.

B1: LINE1-mini (parent)
chain: GGCAGAGCUCAACACAGCGUGGCAAAGUGGCUGUGGCUAGACUGCC

Variants of: B1
Assay: self-cleavage, relative activity (ratio to wild type); higher = more cleavage; in vitro, sequencing; the parent is a self-cleaving ribozyme

Row | Variant | self-cleavage
1 | GUCAGACCUCAACACAGCGUGUCAAAGUGGCUGUGGCUAGACUGCC [G2U G7C G22U] | 0.04
2 | GUCAGACCGCAACACAGCGUGGCAAAGUGGCUGUGGCUAGACUGCC [G2U G7C U9G] | 0.02
3 | GUCAGAUCUCAACACAGGGUGGCAAAGAGGUGGUGGCUAAACUGCC [G2U G7U C18G U28A C31U U32G G40A] | 0.03
4 | GUCAGAUCUCAACACAGCGUGGCAAAGUGGGUGUGGAUAGACUGCC [G2U G7U C31G C37A] | 0.01
5 | GUCAGAUCUCAACACAACGUGGCAAAGUGGCUGUGGCUAUACUGCC [G2U G7U G17A G40U] | 0.04
6 | GUCAGAUCUCAACACAACGUGGCAAAGUGGCUGAGGCUAGAAUGCC [G2U G7U G17A U34A C42A] | 0
7 | GUCAGAUCUCAACACAGCAUAGCAAAGUCGCUGCGGCUAGACUGCC [G2U G7U G19A G21A G29C U34C] | 0
8 | GUCAGAUCUCAACACAGCGUGGCAAAGUGGCUGUGGCUAGACUCCC [G2U G7U G44C] | 0.04
9 | GUCAGAGCUCAACACAACGUGGCAUAGUGGCUGGGGCUAGACUGCC [G2U G17A A25U U34G] | 0
10 | GUCAGAGCUCAACACAAGAUGGCAAAGUGGCUGUGGCUAGACUGCC [G2U G17A C18G G19A] | 0
11 | GUCAGAGCUCAACACAACGUGUCAAAGUAGAUGUGGCUAGACUGCC [G2U G17A G22U G29A C31A] | 0.07
12 | GUCAGAGCUCAACACAACGUGGCAAAGUGGCUAUGGCUAGACUGAC [G2U G17A G33A C45A] | 0.01
13 | GUCAGAGCUCAACACAACGUGGCAAAGUGGCUGUGGCUAGACUUCC [G2U G17A G44U] | 0.03
14 | GUCAGAGCUCAACACACCGUGGCAAAGUGGCUGUAGCUAGACUGCC [G2U G17C G35A] | 0.01
15 | GUCAGAGCUCAACACACCGUGGCAAAGUGGCUGUGUCUAGACUGCC [G2U G17C G36U] | 0.03
16 | GUCAGAGCUCAACACAUGGCAGCAAAGUGGCUGUGGCUAGACUGCC [G2U G17U C18G U20C G21A] | 0.04
17 | GUCAGAGCUCAACACAUCGUGGCAAAGUGGCUGUGGCUAGACUGCA [G2U G17U C46A] | 0
18 | GUCAGAGCUCAACACAGCAUGGCAAAGUGGCUGUCGCUCGACUGCC [G2U G19A G35C A39C] | 0.04
19 | GUCAGAGCUCAACACAGCUUGGCACAGUGGCUGUGGCUAGACUUCC [G2U G19U A25C G44U] | 0.02

Row | Variant | self-cleavage
20 | GUCAGAGCUCAACACAGCUUGGCAAAGUGGCUGUGGCUUGACUGCC [G2U G19U A39U] | 0.02
21 | GUCAGAGCUCAACACAGCUUGGCAAAGUGGAUGUGGCUAGACUGCC [G2U G19U C31A] | 0.01
22 | GUCAGAGCUCAACACAGCUUGGCAAAAUGCCUGUGGCUAGACUGCC [G2U G19U G27A G30C] | 0.15
23 | GUCAGAGCUCAACACAGCUUGGCAAAGUGGCUGUGUCUAGACUGCC [G2U G19U G36U] | 0.04
24 | GUCAGAGCUCAACACAGCUUGGCAAAGGGGCUGUGGCUAGACUGCC [G2U G19U U28G] | 0.03
25 | GUCAGAGCUCAACACAGCUUGGCAAAGUGGCUGUGGCAAGACUGCC [G2U G19U U38A] | 0.13
26 | GUCAGAGCUCAACACAGCGUAGCAUAAUGGCUGUGGCUAGGCUGCC [G2U G21A A25U G27A A41G] | 0.02
27 | GUCAGAGCUCAACACAGCGUAGCAAAUUGGCUGUGGCUAGACUACC [G2U G21A G27U G44A] | 0.23
28 | GUCAGAGCUCAACACAGCGUUGCAAAGUUGCUGUGGCUAGACUGCC [G2U G21U G29U] | 0.09
29 | GUCAGAGCUCAACACAGCGUUGCAAAGUGGCUGUGGCUAGACAGCC [G2U G21U U43A] | 0.02
30 | GUCAGAGCUCAACACAGCGUGCCAAAGUGGCUGUAGCUAGACUGCU [G2U G22C G35A C46U] | 0.03
31 | GUCAGAGCUCAACACAGCGUGCCAAAGUGGCUGUGGCUAUAUUGCC [G2U G22C G40U C42U] | 0.13
32 | GUCAGAGCUCAACACAGCGUGUCAAAGUGGCUUUGGCUAGACUACC [G2U G22U G33U G44A] | 0.03
33 | GUCAGAGCUCAACACAGCGUGGCAAAAUGGGUGUGGCUAGACUGCC [G2U G27A C31G] | 0.01
34 | GUCAGAGCUCAACACAGCGUGGCAAAAUCGCGGUGGCUAGACUGCC [G2U G27A G29C U32G] | 0.02
35 | GUCAGAGCUCAACACAGCGUGGCAAAUUGGCUGUGGCUAGACUGGC [G2U G27U C45G] | 0.03
36 | GUCAGAGCUCAACACAGCGUGGCAAAUUGACUGUGGCUAGCCGGUC [G2U G27U G30A A41C U43G C45U] | 0.02
37 | GUCAGAGCUCAACACAGCGUGGCAAAGUAGCUGUGGCUAGACUGAC [G2U G29A C45A] | 0.39
38 | GUCAGAGCUCAACACAGCGUGGCAAAGUGACUGUGGAUAGAUUGCC [G2U G30A C37A C42U] | 0

Row | Variant | self-cleavage
39 | GUCAGAGCUCAACACAGCGUGGCAAAGUGACUGUGGCAAGACUGCC [G2U G30A U38A] | 0.03
40 | GUCAGAGCUCAACACAGCGUGGCAAAGUGCCUGUGUCUAGACUGCC [G2U G30C G36U] | 0.07
41 | GUCAGAGCUCAACACAGCGUGGCAAAGUGUCUGUGGCUAGACUGUC [G2U G30U C45U] | 0.03
42 | GUCAGAGCUCAACACAGCGUGGCAAAGUGGCUCUGGCUAGACUGCU [G2U G33C C46U] | 0.03
43 | GUCAGAGCUCAACACAGCGUGGCAAAGUGGCUCUGGCUAGACUUCG [G2U G33C G44U C46G] | 0.02
44 | GUCAGAGCUCAACACAGCGUGGCAAAGUGGCUGUAGCUAGACAGCC [G2U G35A U43A] | 0.05
45 | GUCAGAGCUCAACACAGCGUGGCAAAGUGGCUGUGGCUACACAGCC [G2U G40C U43A] | 0.05
46 | GUCAGAGCACAACACAGCGUGGCACAGUGGCUUUGGCUAGACUGAC [G2U U9A A25C G33U C45A] | 0.07
47 | GUCAGAGCAAAACACAGCGUGACAAAGUGUCUGGGGCAAGACUGCC [G2U U9A C10A G22A G30U U34G U38A] | 0.01
48 | GUCAGAGCACAACAAAGCGUGGCAAAGUGGCUGUGGCUAGACUGCC [G2U U9A C15A] | 0.05
49 | GUCAGAGCACAACACAGUGUGGUAAAGUGGCUGUGGCUAGACUGCC [G2U U9A C18U C23U] | 0.02
50 | GUCAGAGCACAACACAGCGUCGCAAAGUGGCUGUGGCUAGACUGCC [G2U U9A G21C] | 0.04
51 | GUCAGAGCCCAACACAGCGUGGCAGAGUGGCUGUGGCUAGACUGCA [G2U U9C A25G C46A] | 0.02
52 | GUCAGAGCCCAACACAGCGUGGCAAAGUGGCUGUGGCUAGUCUGCC [G2U U9C A41U] | 0.02
53 | GUCAGAGCCCAACACAGAGUGGCAAAGUGGCUGUGGCUAAACUGCC [G2U U9C C18A G40A] | 0.01
54 | GUCAGAGCCCAACACAGCCUGGCAAAGUGGCUGUGGCUAGAAUGGC [G2U U9C G19C C42A C45G] | 0.04
55 | GUCAGAGCGAAAACCAGCGUGGCAAAGUGGCUGUGGCUAGACUGCC [G2U U9G C10A C13A A14C] | 0.02
56 | GUCAGAGCGGAACCCAGCGUGGCAAAGUGGCAGUGGCUAGAAUGCC [G2U U9G C10G A14C U32A C42A] | 0
